Whole data set: some 33,000 sequences, median “E-score (-0.5 to 0.5)” near -0.021, cut for the highest 2% near 0.32. The list shows a part of the results.
target: T1, Zap1 (UniProt P47043); experiment: PBM E-score (8-mer binding enrichment) (E-score (-0.5 to 0.5)); higher = stronger / more preferred TF binding; most listed sequences are background and not binding sites; settings: protein concentration: 200 nM; construct: GST-full length
T1 sequence: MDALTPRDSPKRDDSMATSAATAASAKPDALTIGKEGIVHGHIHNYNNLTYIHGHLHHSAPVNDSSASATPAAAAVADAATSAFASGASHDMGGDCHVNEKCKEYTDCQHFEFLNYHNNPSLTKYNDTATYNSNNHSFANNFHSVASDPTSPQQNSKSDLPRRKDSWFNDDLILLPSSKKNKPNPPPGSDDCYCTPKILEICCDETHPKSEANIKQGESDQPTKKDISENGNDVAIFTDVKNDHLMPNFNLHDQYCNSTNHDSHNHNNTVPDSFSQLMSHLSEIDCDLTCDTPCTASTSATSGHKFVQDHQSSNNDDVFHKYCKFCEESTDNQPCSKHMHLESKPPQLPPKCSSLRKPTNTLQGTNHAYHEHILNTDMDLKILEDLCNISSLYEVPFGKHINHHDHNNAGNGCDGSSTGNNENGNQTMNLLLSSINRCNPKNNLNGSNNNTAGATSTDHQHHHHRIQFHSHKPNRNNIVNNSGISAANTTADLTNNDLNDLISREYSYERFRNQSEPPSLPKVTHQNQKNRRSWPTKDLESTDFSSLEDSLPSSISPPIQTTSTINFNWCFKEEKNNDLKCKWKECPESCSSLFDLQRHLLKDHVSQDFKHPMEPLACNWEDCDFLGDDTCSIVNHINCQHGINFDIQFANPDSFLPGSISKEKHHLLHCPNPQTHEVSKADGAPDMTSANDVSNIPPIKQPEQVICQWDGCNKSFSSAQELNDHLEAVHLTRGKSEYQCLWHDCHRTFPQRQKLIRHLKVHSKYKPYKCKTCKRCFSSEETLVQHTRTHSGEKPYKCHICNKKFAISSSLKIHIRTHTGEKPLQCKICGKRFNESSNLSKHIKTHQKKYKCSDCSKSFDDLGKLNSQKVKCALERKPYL
Procedure: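 Universal 'all 10-mer' protein binding microarrays (Agilent AMADID 015681) probed with GST-tagged S. cerevisiae TFs (full-length or DBD) made by in vitro transcription/translation (PURExpress), about 100-200 nM. Bound TF was detected with fluorescent anti-GST. Each ungapped 8-mer (which stands for itself and its reverse complement) is scored by the PBM enrichment score (E-score), a modified Wilcoxon-Mann-Whitney statistic from -0.5 to +0.5, computed with the Universal PBM Analysis Suite. Scale: above 0.35 generally sequence-specific binding.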

Point of comparison: CCCTACAG, “PBM E-score” value 0.046. Against it:
- AAGGCTAG — lower, -0.0741
- CGTTGGCC — lower, -0.138
- ACCCTGTA — higher, 0.353
- TCGGGGAA — higher, 0.103
- CCCACGAC — lower, -0.0686
- CGGGTTAG — higher, 0.0706
- AATTGAGC — lower, -0.172
- CCAACTCC — higher, 0.0711
- GGGAACAA — lower, -0.0417
- CTATTGGC — lower, -0.193
- CGAGGGAA — lower, 0.00282
- GAGTGAGC — lower, -0.193
- AGTCCGCG — lower, -0.0509
- AAGGTCAG — higher, 0.32
- GCGGAGCA — lower, -0.249
- AAGCACTC — lower, -0.146
- ACTCGTCT — higher, 0.0828
- AATTTCAC — lower, 0.0163
- ACATCTTA — lower, 0.0426
- CGCATAGC — lower, -0.28
- ACACTGTC — lower, -0.051
- ACGAAGAT — lower, -0.105
- CCTACACG — lower, -0.103
- CCTTGCGC — lower, -0.0353
- ACAGCAGA — higher, 0.0639
- CCAAAGGG — higher, 0.267
- GGACATCC — lower, -0.048
- GCTTCCCA — lower, -0.342
- CTATCAAC — higher, 0.0502
- TTAATGAA — higher, 0.187
- CTATGCTA — lower, 0.0289
- ATATCGAT — higher, 0.0694
- AAAGCTTC — lower, -0.0032
- ATGTTGAC — lower, 0.0368
- GAGTCTAC — lower, -0.229
- CAGGGGGA — lower, -0.394
- CAGTGCAA — lower, -0.0222
- GTTTCTAA — higher, 0.138
- CAAATTTG — higher, 0.109
- TACACCCA — higher, 0.0798
- GGCGTTTA — lower, -0.238
- GTTTACTA — higher, 0.135
- GTTGACGA — lower, -0.038
- CACCATAC — higher, 0.0636
- ATAAATTA — higher, 0.197
- ACCAGTCA — higher, 0.0553
- CCAATCCC — lower, -0.116
- CAACTCTC — lower, -0.119
- CGTATGTC — lower, -0.0622
- ACTATCTC — lower, -0.129
- AAGTTAAC — higher, 0.247
- AAATTGCA — higher, 0.0924
- ATTGAGTC — lower, 0.00193
- AGTTGTCC — higher, 0.132
- GTCTACGA — lower, -0.232
- GTCTAACA — lower, -0.0364
- CGGAACGA — higher, 0.112
- AGGACAAA — higher, 0.0742
- GCGCGATA — higher, 0.0497
- TGCAGAAA — higher, 0.0908
- AAACCGCA — lower, 0.0339
- GACCCTGA — higher, 0.304
- TCGGGACA — lower, -0.139
- AGTAGGTG — higher, 0.0464
- CATCTATC — lower, -0.131
- CACGTTCA — lower, -0.127
- CCCGGTTC — lower, -0.0485
- CCGGCTTA — higher, 0.0901
- AAACCCGT — higher, 0.0781
- GATTCAGA — lower, -0.0457
- ATCTTCAC — higher, 0.0626
- ACGCTTCA — lower, -0.268
- ACATATGT — lower, -0.329
- AGCTCCCC — lower, -0.306
- CGATCTGA — lower, -0.0395
- ACAGCGGC — lower, -0.148
- ACGGTGTC — lower, -0.00272
- GACCGCTC — lower, -0.0268
- CTCTCCAG — lower, -0.256
- GAGAATTA — lower, -0.0541
- ACCTCCGG — higher, 0.228
- AGAATCCA — higher, 0.0671
- GTATGTTA — higher, 0.181
- AAGATATT — lower, 0.0386
- GATTAGTA — lower, -0.0306
- CGACTCGC — lower, -0.219
- GATTAATA — higher, 0.175
- TAAAACAA — higher, 0.0846
- GGGGAATA — lower, -0.138
- ATAACGAC — lower, 0.0214
- ACCAGACC — higher, 0.201
- CCAACGAC — lower, -0.154
- GTCTCAGA — lower, -0.0264
- CGATAAAC — lower, -0.102
- GTACCGTA — higher, 0.276
- GGAAAACA — lower, -0.0302
- GATTGGGC — lower, -0.0408
- CTCTATCA — lower, -0.109
- ACTGACCT — higher, 0.127
- CAAACGTA — lower, -0.0398
- AGGCTACC — higher, 0.161
- CAGTACGG — lower, -0.047
- ATGTTTTG — higher, 0.0598
- GCTTGCCC — lower, -0.293
- GCGTCAGC — lower, -0.14
- CGCTATAC — lower, -0.169
- AAAGCAAT — higher, 0.18
- AACACAAC — higher, 0.193
- AAATACCA — higher, 0.129
- GAAGCTAC — lower, -0.06
- TGTCCTAA — higher, 0.153
- AGAGTATC — lower, -0.0558
- GGATGGCA — lower, -0.116
- GGCTTACA — lower, -0.139
- AAGGGACA — lower, 0.0317
- TACGTATA — lower, -0.0338
- GGGGCGAA — lower, -0.12
- ACTGTGCG — lower, -0.0601
- ACCTCCGA — the same, 0.046
- ATTGTGTG — lower, -0.0759
- ACCGGTGA — higher, 0.0524
- AGGTTTTG — higher, 0.201
- CCCACACG — lower, 0.0302
- CACCCCCG — lower, -0.111
- CCATTACG — higher, 0.0617
- ATCTACCC — higher, 0.126
- GCCCTCCA — lower, -0.0877
- ACAACTGA — lower, 0.0204
- ACAACTCT — higher, 0.0818
- CATACTAG — higher, 0.0924
- ATGTTGCG — lower, -0.0348
- AGGTACCA — higher, 0.347
- AGATCAAC — higher, 0.103
- ATCTAAGC — lower, -0.0856
- ATCCAACA — higher, 0.0629
- CCTGTATC — lower, 0.0072
- GCCGAGTA — lower, -0.224
- AAGGGAAA — lower, -0.126
- CCGAAGCG — lower, -0.14
- ACGAGGCC — lower, -0.124
- AACGGGGG — lower, -0.215
- ATGGTGTG — lower, 0.00296
- GCTTTCAC — lower, -0.0892
- ACTTCCAC — lower, -0.0819
- GGGCCGGA — lower, -0.0664
- GGTGCAAA — higher, 0.101
- ATACCAGA — higher, 0.187
- ACCAGACG — lower, 0.0138
- GTTAAAGA — higher, 0.107
- AATCAGGC — lower, -0.193
- ACCCTCCT — higher, 0.189
- GATTGAGC — lower, -0.0519
- CAGTAGCA — lower, -0.278
- ACGTACGA — lower, -0.267
- CAGCCGTA — lower, -0.0354
- ATGGCGAG — lower, -0.134
- AGCCCGTG — lower, -0.306
- CACGATGA — lower, 0.00522
- AGTATGGA — higher, 0.062
- ACGTGTCC — lower, -0.277
- CTAGCTGA — lower, -0.0712
- TGCGGGAA — lower, -0.0562
- AGTTATCC — higher, 0.0893
- GCTCAACC — lower, 0.0304
- GAAATTGA — lower, -0.083
- AAGAGAAA — lower, -0.215
- AGTAAGAA — higher, 0.125
- GCATTCTA — lower, -0.0447
- AAAGCACG — lower, -0.198
- CGAAAGGA — higher, 0.0646
- CACCCCCA — lower, -0.101

From the supplement of paper PMC3334620
